Results published in ChEMBL document CHEMBL1157539, “Thousands of chemical starting points for antimalarial lead identification” (Nature, 2010).
“And” between values parts separate entries of the source, which are not always exact repeats. Identical values can stand only once. Whole data set: some 13,000 compounds, median “IFI” near 4, cut for the highest 2% near 17. Some of the results follow.

assay: GSK_TCMDC: Inhibition Frequency Index (IFI). The number of non-kinase HTS assays where a compound showed > 50 % inhibition, expressed as a percentage of the number of such assays in which the compound was tested (-0 is zero); assay type: functional

SMILES | IFI
CC1(CCCCN2CC=C(c3c[nH]c4ccccc34)CC2)C(=O)Nc2ccccc21 (stereo unspecified) | 3.08%
CC(C)CNCc1ccc(-c2cccc(CN(C(=O)CCC3CCCC3)C3CCN(Cc4ccccc4)CC3)c2)cc1 | 9.29%
COc1cc(NC(=O)c2nn(CCCN3CCC4(CC3)C(=O)NCN4c3ccccc3)cc2-c2ccc(Cl)c(Cl)c2)cc(OC)c1OC | 15.4%
CCCCCC(C)C(C)c1cc(O)c2c(c1)OC1(C(C)C)CC(O)C(C)C2C1 (stereo unspecified) | 5.71%
O=C(NC1CCC(CN2CCC(c3c[nH]c4ccccc34)CC2)CC1)c1cc(-c2ccccc2Cl)oc1C(F)(F)F (stereo unspecified) | 0.68%
O=C(/C=C/c1ccc2ccccc2c1)NC1CCC(CN2CCC(c3c[nH]c4ccccc34)CC2)CC1 (stereo unspecified) | 4.23%
CC[C@H]1CN2CC[C@H]1C[C@H]2[C@H](O)c1cc(-c2ccc(C)cc2)nc2ccc(OC)cc12 | 8.72%
O=C(/C=C/c1ccccc1Cl)NC1CCC(CN2C3CCC2CC(c2c[nH]c4ccccc24)C3)CC1 (stereo unspecified) | 6.38%
COc1cccc(C(=O)C2CC2CN2CC=C(c3c(C)[nH]c4ccccc34)CC2)c1 (stereo unspecified) | 3.74%
CO/C(=C\C=C\c1cc2cc(Cl)c(Cl)cc2[nH]1)C(=O)N[C@H]1CN2CCC1CC2 | 13%
Cc1ccc(C[C@@H](C)NC[C@H](O)c2cccc(C(F)(F)F)c2)cc1 | 8.7%
O=C(/C=C/c1ccc(Cl)c(Cl)c1)N1CCC2CC(N3CCC(c4c[nH]c5ccccc45)CC3)CCC2C1 (stereo unspecified) | 7.19%
CC[C@H]1CN2CC[C@H]1C[C@H]2[C@H](O)c1cc(-c2cccc(Cl)c2)nc2ccc(OC)cc12 | 8.97%
CCCc1c(C(=O)NC2CCC(CN3CCC(c4c[nH]c5ccccc45)CC3)CC2)cnn1-c1ccccc1 (stereo unspecified) | 6.38%
CC(Cc1ccc(SC(C)C)cc1)NCC(O)c1cccc(Cl)c1 (stereo unspecified) | 10.1%
O=C(/C=C/c1ccc(Cl)c(Cl)c1)NC1CCC(N2CCC(c3c[nH]c4ccc(O)cc34)CC2)CC1 (stereo unspecified) | 2.96%
CC(Cc1ccc(S(=O)(=O)N(C(C)C)C(C)C)cc1)NCC(O)c1cccc(C(F)(F)F)c1 (stereo unspecified) | 6.29%
COc1cccc(C2(C)CCN(CCCCNC(=O)c3ccc(NC(=O)c4ccc(Cl)cc4)cc3)CC2)c1 | 9.01%
COc1ccc(C2CNCc3c2cc(OC)c(OC)c3Cl)cc1 (stereo unspecified) | 2.94%
O=C(/C=C/c1ccc(Cl)c(Cl)c1)Nc1cccc(CN2CCC(c3c[nH]c4ccc(O)cc34)CC2)c1 | 2.88%
COC(C(=O)OCCC1CCCN1C)(c1ccccc1)c1ccccc1 (stereo unspecified) | 2.19%
O=C(/C=C/c1cccc2ccccc12)NC1CCC(CN2CCC(c3c[nH]c4ccccc34)CC2)CC1 (stereo unspecified) | 6.43% and 5.67%

SMILES | IFI
O=C(COc1ccc(Cl)cc1)N1CCC(CN2CCC(c3c[nH]c4ccccc34)CC2)CC1 | 8.51%
CC1(C)CCCN(C(=O)Cc2ccc3c(c2)CCCC3)C1CN1CC=CC1 (stereo unspecified) | 1.41%
CC(C)CNCc1cccc(-c2ccc(CN(C(=O)Nc3ccccc3)C3CCN(Cc4ccccc4)CC3)cc2)c1 | 5.71%
O=C(Nc1cc(C(F)(F)F)cc(C(F)(F)F)c1)N1CCC(CN2CCC(c3c[nH]c4ccccc34)CC2)CC1 | 4.29%
Cc1[nH]c2ccccc2c1C1=CCN(CCCCCC23CCCc4cccc(c42)NC3=O)CC1 (stereo unspecified) | 2.84%
S=C(NCCc1ccc(Cl)cc1)NC1CCC(CN2CCC(c3c[nH]c4ccccc34)CC2)CC1 (stereo unspecified) | 6.52% and 5%
CN(c1cc(NC(=O)c2ccc(F)cc2)ccn1)C1CCN(Cc2ccc(C#N)cc2)CC1 | 2.5%
O=C(c1cccs1)N(Cc1cccc(-c2ccc(CNC3CCCC3)cc2)c1)C1CCN(Cc2ccccc2)CC1 | 9.79%
NCc1ccc(-c2ccccc2CN(C(=O)Nc2ccccc2)C2CCN(Cc3ccccc3)CC2)cc1 | 7.91%
CCCCCc1cc(O)c2c(c1)OC(C)(C)CC2C1=CCN(Cc2cnc3ccccc3c2)CC1 (stereo unspecified) | 3.68%
Cc1cccc(N2CCN(Cc3cc(Cl)ccc3O)CC2)c1C | 2.08%
CCc1ccc(CC(C)NCC(O)c2ccccc2)cc1 (stereo unspecified) | 4.55%
CC(Cc1ccc(CSC(C)C)cc1)NCC(O)c1cccc(Cl)c1 (stereo unspecified) | 7.04%
COc1ccc(CC(C)NCC(O)c2cccc(Cl)c2)cc1C (stereo unspecified) | 2.9%
CN1CCN(c2ccc3[nH]c(-c4ccc5[nH]c(-c6ccc(O)cc6)nc5c4)nc3c2)CC1 | 5.26%
CC[C@H]1CN2CC[C@H]1C[C@H]2[C@H](O)c1cc(-c2ccc(F)cc2)nc2ccc(OC)cc12 | 9.46%
O=C(/C=C/c1ccc(Cl)c(Cl)c1)N1CCC(CN2CCC(c3c(-c4ccc(F)cc4)[nH]c4ccccc34)CC2)CC1 | 0.73%
O=C(C=Cc1ccc(F)c(Br)c1)NC1CCC(CN2CCC(c3c[nH]c4ccccc34)CC2)CC1 (stereo unspecified) | 3.76% and 4.48%
COc1ccc(CCNCc2ccc3c(C)cc(N)nc3c2)cc1 | 2.63%
O=C(/C=C/c1ccc(Cl)c(Cl)c1)Nc1cccc(CN2CCC(c3c[nH]c4ccccc34)CC2)c1 | 7.19%
CCC1(C)CC(CCNCc2ccccc2O)(c2ccc(F)cc2)CCO1 (stereo unspecified) | 2.26%
C=C[C@H]1CN2CC[C@@H]1C[C@H]2[C@H](O)c1cc(-c2ccc(F)cc2)nc2ccc(OC)cc12 | 5.88%

SMILES | IFI
O=C(/C=C/c1ccc(Cl)c(Cl)c1)N1CCC(CN2CCC(c3c[nH]c4ccccc34)C(O)C2)CC1 (stereo unspecified) | 4.44%
C1=C(c2c[nH]c3ccccc23)CCN(Cc2ccccc2)C1 | 4.62%
O=C(/C=C/c1c(Cl)cccc1Cl)NC1CCC(CN2C3CCC2CC(c2c[nH]c4ccccc24)C3)CC1 (stereo unspecified) | 4.44%
Cc1[nH]c2ccc(O)cc2c1C1CCN(CC2CCN(C(=O)/C=C/c3ccc(Cl)c(Cl)c3)CC2)CC1 | 6.9%
CC[C@H]1CN2CCc3cc(OC)c(OC)cc3[C@@H]2C[C@@H]1C[C@H]1NCCc2c1cc(OC)c(OC)c2Br | 9.35%
CC(C)CN1CCC(N(C)c2cc(NC(=O)c3cccc(F)c3)ccn2)CC1 | 2.78%
N#Cc1c(Cl)cccc1Oc1ccc(S(=O)(=O)NC2CCC(CN3CCC(c4c[nH]c5ccccc45)CC3)CC2)cc1 (stereo unspecified) | 10.1% and 7.8%
O=C(c1cc(C(=O)NCc2ccc(Cl)cc2)c(=O)n(Cc2ccc(Cl)cc2)c1)c1cc(Cl)ccc1O | -0%
COC(=O)c1ccc(CC(C)NCC(O)c2cccc(C(F)(F)F)c2)c(Cl)c1 (stereo unspecified) | 4.55%
COC(=O)/C=C/c1ccc(CC(C)NCC(O)c2cccc(Cl)c2)cc1 (stereo unspecified) | 4.38%
CNCCN(C)C(=O)Oc1c(Br)c(C)nc(C)c1-c1ccc(Oc2ccc(OC(F)(F)F)cc2)cc1 | 12.4%
Cc1[nH]c2ccccc2c1C1=CCN(CCN2CCOc3c(Br)cccc3C2=O)CC1 | 2.14%
COc1ccc(CC(C)NCC(O)c2cccc(Cl)c2F)cc1 (stereo unspecified) | 3.57%
COc1ccc(CN2CCN(CCOC(c3ccc(F)cc3)c3ccc(F)cc3)CC2)c(O)c1 | 4.11%
COc1cc(C=CC(=O)N2CCC(CN3CCC(c4c[nH]c5ccccc45)CC3)CC2)ccc1O | 2.24%
CC[C@H]1CN2CC[C@H]1C[C@H]2[C@H](O)c1cc(-c2ccc(F)cc2C)nc2ccc(OC)cc12 | 2.84%
Cc1cc(N)nc2cc(CNCCc3ccccc3Br)ccc12 | 7.25%
CO[C@@H]1C[C@@H](C(=O)Nc2ccccc2)N(c2ccc(C#N)c3ccccc23)C1 | 0.72%
CCCN(CCC)CCOC(=O)C(OCC)(c1ccccc1)c1ccccc1 | -0%
Cc1[nH]c2cc(Cl)ccc2c1C1=CCN(CCCCC2(C)C(=O)Nc3c(F)cccc32)CC1 (stereo unspecified) | 2.21%
O=C(NC1CCC(N2CCC3(CC2)C(=O)NCN3c2ccccc2)CC1)c1cc2ccccc2[nH]1 (stereo unspecified) | 7.58%
CC[C@H]1CN2CC[C@@H]1C[C@H]2[C@H](O)c1cc(N2CCCC(C)(C)C2)nc2ccc(OC)cc12 | 7.55%

SMILES | IFI
Cc1ccc2[nH]cc(C3CCN(CC4CCC(NC(=O)/C=C/c5ccc(Cl)c(Cl)c5)CC4)CC3)c2c1 (stereo unspecified) | 5.97% and 6.47%
O=C(/C=C/c1ccsc1)NC1CCC(CN2CCC(c3c[nH]c4ccccc34)CC2)CC1 (stereo unspecified) | 3.76%
CC(C)CNCc1cccc(-c2ccc(CN(C(=O)c3cccs3)C3CCN(Cc4ccccc4)CC3)cc2)c1 | 7.97%
O=C(C=Cc1ccccc1O)N1CCC(CN2CCC(c3c[nH]c4ccccc34)CC2)CC1 | 2.21%
Oc1ccc2[nH]cc(C3=CCN(Cc4ccccc4)CC3)c2c1 | 3.7%
Cc1cc2ccc(CNCCc3ccccc3Br)cc2nc1N | 2.22%
CC(=O)Nc1ccc(OCCN(CC(C)(C)C)c2ccc(C#N)c(C(F)(F)F)c2)c(Cl)c1 | -0%
CNC(=O)c1ccc2[nH]cc(C3CCN(CC4CCN(C(=O)/C=C/c5ccc(Cl)c(Cl)c5)CC4)CC3)c2c1 | 0.74%
O=C(/C=C/c1ccc(Cl)c(Cl)c1)NC1CCC(N2CCC(c3c[nH]c4ccccc34)CC2)CC1 (stereo unspecified) | 6.94%
CCCCCCCn1c(=O)c(C(=O)Nc2c(C)cccc2C)c(O)c2ccccc21 | -0%
CC(Cc1ccc(C2=CCNCC2)cc1)NCC(O)c1cccc(C(F)(F)F)c1 (stereo unspecified) | 2.86%
CC(Cc1ccc(Sc2ccccc2)cc1)NCC(O)c1cccc(C(F)(F)F)c1 (stereo unspecified) | 5.56%
C#CCN1CCC2=C(C1)c1c(O)cc(C(C)C(C)CCc3ccc(F)cc3)cc1OC2(C)C (stereo unspecified) | 2.29%
COC(=O)c1ccc(CC(C)NCC(O)c2cccc(OCc3ccccc3)c2)cc1 (stereo unspecified) | 5.76%
O=C(/C=C/c1ccccc1Cl)NC1CCC(CN2CCC(c3c[nH]c4ccccc34)CC2)CC1 (stereo unspecified) | 5.04% and 6.94%
COc1cccc(O)c1CNCC(O)c1cccc(C(F)(F)F)c1 (stereo unspecified) | 0.78%
Cc1ccc(/C=C/C(=O)NC2CCC(CN3CCC(c4c[nH]c5ccccc45)CC3)CC2)cc1C (stereo unspecified) | 5.67% and 7.8%
CCCCCSc1cc(O)c(C(CNC)C(C)C)cc1OC (stereo unspecified) | 2.17%
O=C(/C=C/c1ccc(Cl)c(Cl)c1)NCCC1CCC(N2CCC(c3c[nH]c4ccccc34)CC2)CC1 (stereo unspecified) | 6.15%
CC[C@H]1CN2CC[C@H]1C[C@H]2[C@H](O)c1cc(-c2ccc(Cl)c(Cl)c2)nc2ccc(OC)cc12 | 13.8%
